# The campaign covered roughly 220,000 compounds. About 5,700 (2.6%) were called active. Inconclusive means that the source gave no clear call. Such entries were picked first, then a sample of the others. Calls follow the shape of the dose curve; as a rule, active = well fitted inhibition curve with a large enough effect; inconclusive = small, poorly fitted or top-dose-only effect; inactive = no such curve, though single readings can be large or run the other way. Potencies beside an inconclusive call are fits to weak or partial responses and may not hold up.
# Target: Lysine-specific demethylase 5B (Homo sapiens) (UniProt Q9UGL1)
# Experiment: Primary screen for KDM5B Histone Demethylases FDH-coupled qHTS; also: nearly all actives have a fitted effect of over 70% in size; as to activity change, negative = inhibition: 0% is about no effect
# Conditions: FDH-coupled NADH fluorescence (FDH is formaldehyde dehydrogenase); activity change, negative = inhibition: at 57.7 µM (top of the series) unless noted
# Outline: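 Coupled FDH/NAD⁺ fluorescence readout. KDM5BΔAP 200 nM final; compound titration, 10 min RT preincubation; substrate mix 12.5 µM H3K4me3, 25 µM 2-OG, 50 µM Fe(II), 100 µM ascorbate, 0.25 mM NAD⁺, 0.25 U/mL FDH; ΔRFU over 30 min.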
# Potency is read from the fitted curve at half-maximal effect; tags tell the direction and shape of the fitted curve.
# Sequence of UniProt Q9UGL1 (Q9UGL1 whole entry, looked up): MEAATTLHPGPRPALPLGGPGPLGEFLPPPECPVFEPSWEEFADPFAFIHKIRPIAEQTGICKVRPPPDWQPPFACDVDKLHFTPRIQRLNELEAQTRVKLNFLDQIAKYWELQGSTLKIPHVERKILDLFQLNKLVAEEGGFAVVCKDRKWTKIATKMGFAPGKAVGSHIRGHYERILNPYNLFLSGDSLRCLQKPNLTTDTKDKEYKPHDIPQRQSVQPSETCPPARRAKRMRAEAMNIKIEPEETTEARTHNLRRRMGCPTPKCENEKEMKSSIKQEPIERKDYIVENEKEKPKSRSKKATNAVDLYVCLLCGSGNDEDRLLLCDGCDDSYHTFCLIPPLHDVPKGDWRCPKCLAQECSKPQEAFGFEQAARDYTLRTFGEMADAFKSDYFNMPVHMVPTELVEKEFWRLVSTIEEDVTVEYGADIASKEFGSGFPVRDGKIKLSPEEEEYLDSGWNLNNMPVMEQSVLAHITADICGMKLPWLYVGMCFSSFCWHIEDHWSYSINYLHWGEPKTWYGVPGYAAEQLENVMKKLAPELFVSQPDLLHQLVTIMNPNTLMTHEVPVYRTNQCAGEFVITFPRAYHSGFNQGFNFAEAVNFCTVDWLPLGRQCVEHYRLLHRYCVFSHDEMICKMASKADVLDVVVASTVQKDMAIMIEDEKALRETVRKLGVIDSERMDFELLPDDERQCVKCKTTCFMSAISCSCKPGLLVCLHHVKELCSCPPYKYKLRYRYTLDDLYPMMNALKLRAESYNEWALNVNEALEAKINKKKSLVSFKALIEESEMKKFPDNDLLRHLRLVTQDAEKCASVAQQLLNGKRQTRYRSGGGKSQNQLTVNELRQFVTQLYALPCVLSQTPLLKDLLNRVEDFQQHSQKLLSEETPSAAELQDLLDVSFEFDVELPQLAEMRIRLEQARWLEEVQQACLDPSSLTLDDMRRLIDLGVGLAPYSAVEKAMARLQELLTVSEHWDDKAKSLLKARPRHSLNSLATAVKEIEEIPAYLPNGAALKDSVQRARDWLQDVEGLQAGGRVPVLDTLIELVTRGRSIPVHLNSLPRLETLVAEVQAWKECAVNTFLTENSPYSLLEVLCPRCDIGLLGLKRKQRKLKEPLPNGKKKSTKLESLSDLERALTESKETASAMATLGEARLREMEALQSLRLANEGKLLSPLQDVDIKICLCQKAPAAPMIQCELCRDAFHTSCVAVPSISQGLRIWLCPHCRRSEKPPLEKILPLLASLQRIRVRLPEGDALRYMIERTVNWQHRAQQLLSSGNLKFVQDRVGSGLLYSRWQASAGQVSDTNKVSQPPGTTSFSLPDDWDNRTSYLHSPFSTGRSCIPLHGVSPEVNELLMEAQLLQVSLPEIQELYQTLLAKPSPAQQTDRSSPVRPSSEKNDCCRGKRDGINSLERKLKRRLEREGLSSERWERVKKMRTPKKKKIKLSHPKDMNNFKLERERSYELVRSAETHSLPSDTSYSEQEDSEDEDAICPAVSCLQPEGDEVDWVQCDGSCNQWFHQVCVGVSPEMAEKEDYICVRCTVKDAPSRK
SMILES,"activity change, negative = inhibition",Potency
S=C(NCCc1ccccc1)Nc1ccc(NC(=S)NCCc2ccccc2)c(Cl)c1,inactive: -4.65%,–
Cc1ccc(Cn2c(C(=O)O)c(CNCc3ccc(OC(C)C)cc3)c3ccc(C)cc32)cc1,–,"inconclusive: 25.1 µM [inhibitor, single point]"
CC(C)(C)c1nc(C(=O)NCCc2ccc(Cl)cc2)n2ccncc12,–,active: 79.4 µM
Cc1ccc(C(C)C)c(OCCSc2nc(-c3ccccc3F)nc3cc(=O)[nH]n23)c1,–,"inconclusive: 3.98 µM [inhibitor, partial curve, poor fit]"
O=C(/C=C/c1cccc(Br)c1)c1ccc(O)cc1,–,"inconclusive: 39.8 µM [inhibitor, single point]"
Cc1cc(=O)c(C(=O)N2CCCn3nc(CO)cc3C2)cn1C,–,"inconclusive: 28.2 µM [inhibitor, partial curve, poor fit]"
CC(C)(C)C(=O)/C=C/c1ccc([N+](=O)[O-])cc1,inactive: -2.66%,–
Cc1ccc(S(=O)(=O)c2cn(CC(=O)Nc3ccc(F)c(Cl)c3)c3nc(C)ccc3c2=O)cc1,inactive: 1.96%,–
Cc1ccccc1Nc1cc(C(=O)NCCCN2CCN(c3cccc(Cl)c3)CC2)c2ccccc2n1,–,"inconclusive: 35.5 µM [inhibitor, partial curve, poor fit]"
O=C(NC1CC(=O)N(c2cccc(F)c2)C1)c1cccs1 (stereo not given),inactive: 7.66%,–
CN1C(=O)C(c2ccccc2)CC12CCN(Cc1ccc(F)c(F)c1)CC2 (stereo not given),–,"inconclusive: 15.8 µM [inhibitor, partial curve, poor fit]"
CCC[C@H]1CN(Cc2nc(C)no2)C[C@@H]1NC(=O)CCS(C)(=O)=O,–,"inconclusive: 12.6 µM [inhibitor, partial curve, poor fit]"
COc1ccc(Nc2cnc3ccc(N4CCOCC4)nn23)cn1,–,"inconclusive: 28.2 µM [inhibitor, single point]"
O=C(O)C(c1c[nH]c2cc(F)ccc12)N1CCN(c2ccccc2)CC1 (stereo not given),inactive: 1.29%,–
CCCCCCn1c(N(C)Cc2ccccc2)nc2c1c(=O)[nH]c(=O)n2C,inactive: -5.29%,–
Cc1cccc(Cn2nc(C)c(NC(=O)c3cc(-c4ccccc4)on3)c2C)c1,inactive: 17.5%,–
COc1ccc(CN(C(=O)c2cc(=O)[nH]c3ccc(S(=O)(=O)N4CCOCC4)cc23)C2CC2)cc1,–,"inconclusive: 28.2 µM [inhibitor, single point]"
CCCCOC(=O)c1c(N)n(-c2ccc(OC)cc2OC)c2nc3ccccc3nc12,–,"inconclusive: 2 µM [inhibitor, full curve, poor fit]"
O=C(O)c1cccc(/C=N/O)c1O,–,"inconclusive: 25.1 µM [inhibitor, partial curve, poor fit]"
Cc1ccc(Nc2nc(NC3CCCC3)nc3c2cnn3-c2ccccc2)cc1C,–,"inconclusive: 2 µM [inhibitor, full curve, poor fit]"
CC(C)C1NC(=O)N(Cc2coc(-c3cccc(F)c3)n2)C1=O (stereo not given),inactive: 11.8%,–
COCc1nn2c(c1-c1ccccc1)NC(=O)CC2C(=O)Nc1ccc(F)c(F)c1 (stereo not given),inactive: 18.2%,–

SMILES,"activity change, negative = inhibition",Potency
COc1cccc(CNC(=O)CCS(=O)(=O)c2ccc3c(c2)oc(=O)n3C)c1,inconclusive: -95.7% [inhibitor] [at 11.5 µM],–
CCc1cccc(C)c1NC(=O)Cn1ccn2nc(-c3ccccc3)c(CO)c2c1=O,–,"inconclusive: 25.1 µM [inhibitor, single point]"
CC1(C)CC(=O)C2=C(C1)NC(=O)CC2c1ccc(OCc2ccccc2)cc1 (stereo not given),inactive: 11.3%,–
CCOCCCN(Cc1ccco1)S(=O)(=O)c1cc2c(cc1Cl)NC(=O)CO2,–,"inconclusive: 1.78 µM [inhibitor, partial curve, poor fit]"
CC(c1ccc(-n2cncn2)cc1)n1ccnc1-c1cc2n(n1)CCNC2 (stereo not given),–,"inconclusive: 6.31 µM [inhibitor, partial curve, poor fit]"
CCOc1ccc(CCNC(=O)C2CCN(C(=O)N3CC(CC)Oc4ccccc43)CC2)cc1 (stereo not given),inconclusive: -38.5% [inhibitor],–
CC(=O)c1ccc(S(=O)(=O)NCCC(=O)N2CCN(CC(=O)Nc3cccc(F)c3)CC2)cc1,inactive: -7.13%,–
Cc1ccc(-c2ccc3nnc(CNC(=O)c4ccc(Cl)cc4)n3n2)cc1,–,"inconclusive: 28.2 µM [inhibitor, partial curve, poor fit]"
Cc1c(C(=O)OCC(=O)Nc2ccc(C(=O)N(C)C)cc2)oc2ccccc12,–,"inconclusive: 14.1 µM [inhibitor, partial curve, poor fit]"
O=C(COc1ccccc1F)Nc1ccc2nc(SCCOc3ccccc3)sc2c1,–,"inconclusive: 11.2 µM [inhibitor, partial curve, poor fit]"
O=C1[C@@H]2C[C@@H](CN2Cc2ccccc2)Oc2ccccc2N1Cc1ccccc1,–,"inconclusive: 35.5 µM [inhibitor, single point]"
N#Cc1ccc(/C=C/C(=O)c2ccsc2)cc1,–,"inconclusive: 31.6 µM [inhibitor, partial curve, poor fit]"
Cc1ccc(NC(=O)Cn2c(=O)n(Cc3nc(-c4ccccc4)no3)c(=O)c3cc4c(cc32)OCO4)cc1F,–,"inconclusive: 5.62 µM [inhibitor, partial curve, poor fit]"
O=C(Cc1ccc(Cl)cc1)N1CCN(c2cc(-c3cccs3)[nH]n2)CC1,–,"inconclusive: 31.6 µM [inhibitor, partial curve, poor fit]"
CC(=O)Nc1ccc(NC(=O)CCc2nc3cccnc3n2Cc2cccs2)cc1,–,"inconclusive: 15.8 µM [inhibitor, partial curve, poor fit]"
Cc1ccc2c(n1)N(C)[C@H](CO)CCN(Cc1ccccc1C)C2,–,"inconclusive: 35.5 µM [inhibitor, single point]"
CCc1ccc(OC(C)C(=O)N2CCC(c3nc4ccccc4o3)CC2)cc1 (stereo not given),–,"inconclusive: 0.891 µM [inhibitor, full curve, poor fit]"
COc1ccc(CNS(=O)(=O)c2ccc(N3CCCCS3(=O)=O)cc2)cc1,–,"inconclusive: 5.62 µM [inhibitor, partial curve, poor fit]"
O=C(c1ccco1)N1CCC(C(=O)N2CCN(C(=O)C3CC3)CC2)CC1,inactive: 0.121%,–
CCn1nc(C)c2c(-c3ccccc3)cc(=O)n(C(C)C(=O)NCCC(C)C)c21 (stereo not given),–,"inconclusive: 20 µM [inhibitor, partial curve, poor fit]"
O=C(N1CCC(NS(=O)(=O)c2cccs2)CC1)N1CC2CC(C1)[C@H]1CCCC(=O)N1C2 (stereo not given in full),inactive: -14.7%,–
CN(CC(=O)NC(=O)NCCC1=CCCCC1)C1CCCCC1,inactive: 1.6%,–

SMILES,"activity change, negative = inhibition",Potency
CC(/C=C/C=C/c1ccccc1)=N\NC(=O)C1CC1c1ccc(C(C)(C)C)cc1 (stereo not given),inactive: -6.97%,–
O=C(Nc1noc2ccccc12)c1ccc(Br)o1,inactive: 3.54%,–
CNC(=O)c1cc(-c2ccc(CO)cc2)cc2c1OCCN2Cc1cccnc1,–,active: 28.2 µM
NC(=O)CNC(=O)C1=C[C@@H](NC(=O)Nc2ccccc2Br)[C@@H](O)[C@H](O)C1,–,"inconclusive: 22.4 µM [inhibitor, partial curve]"
O=C(CN1C(=O)C2(CCNCC2)Nc2ccccc21)NC1CCCCCC1,inactive: -21.2%,–
CC(=O)N1Cc2ccccc2CC2(CCN(Cc3ccccn3)C2)C1 (stereo not given),–,"inconclusive: 50.1 µM [inhibitor, partial curve]"
CCOc1ccccc1NC(=O)C(OC(=O)c1cc(OC)c(OC)cc1OC)c1ccccc1 (stereo not given),–,"inconclusive: 28.2 µM [inhibitor, single point]"
COc1cc(/C=C(\C#N)C(=O)NCC2CCCO2)ccc1O (stereo not given),–,"inconclusive: 25.1 µM [inhibitor, partial curve, poor fit]"
COc1ccc2[nH]c3c(c2c1)CCNC31CCN(C(=O)CNC(C)=O)CC1,–,"inconclusive: 35.5 µM [inhibitor, partial curve, poor fit]"
COCCCn1c(C)cc(C(=O)N2CCC(CCOc3ccccc3)C2)c1C (stereo not given),–,"inconclusive: 35.5 µM [inhibitor, partial curve, poor fit]"
O=C(NCc1nnc2ccc(-c3ccccc3)nn12)c1ccc(Cl)cc1,–,active: 28.2 µM
CCOc1ccc(CN2CCc3nc(N4CCN(c5ccccc5OC)CC4)ncc3C2)cc1OC,–,"inconclusive: 39.8 µM [inhibitor, single point]"
O=C(O)CNS(=O)(=O)c1ccc(F)c(F)c1F,inactive: 11.6%,–
CC(=O)NC(Cc1c[nH]c2ccccc12)C(=O)NNC(=O)CSc1nc2ccccc2s1 (stereo not given),inactive: 6.71%,–
CCN(c1ccccc1)S(=O)(=O)c1ccc(NC(=O)c2nc(SC)ncc2Cl)cc1,–,"inconclusive: 22.4 µM [inhibitor, partial curve, poor fit]"
Clc1ccc(-c2nnc(N3CCOCC3)o2)cc1,–,"inconclusive: 25.1 µM [inhibitor, partial curve, poor fit]"
COc1ccc(CNS(=O)(=O)c2ccc3c(c2)N(C)CCS3)cc1,–,"inconclusive: 35.5 µM [inhibitor, single point]"
COc1cccc(-c2cc(C(=O)O)c3cc(C)cc(C)c3n2)c1,–,"inconclusive: 35.5 µM [inhibitor, partial curve, poor fit]"
CC(C)C(=O)Nc1ccc2oc(-c3cccc(Cl)c3)nc2c1,inactive: -19.6%,–
COc1cc(CNC(=O)c2ncoc2-c2cccs2)cc(OC)c1OC,–,"inconclusive: 22.4 µM [inhibitor, partial curve, poor fit]"
COc1ccc(Cn2c(CCC(=O)Nc3cc(OC)c(OC)c(OC)c3)nc3cccnc32)cc1,–,"inconclusive: 25.1 µM [inhibitor, partial curve, poor fit]"
